Measured values from the supplement of paper PMC12217912.
Some of the results follow. Sequences were assembled here from the parent chain. Values near 0.05 are background.

B1: TEV protease; numbered along this chain (parent)
chain: MGESLFKGPRDYNPISSSICHLTNESDGHTTSLYGIGFGPFIITNKHLFRRNNGTLVVQSLHGVFKVKDTTTLQQHLVDGRDMIIIRMPKDFPPFPQKLKFREPQREERICLVTTNFQTKSMSSMVSDTSCTFPSGDGIFWKHWIQTKDGQCGSPLVSTRDGFIVGIHSASNFTNTNNYFTSVPKNFMELLTNQEAQQWVSGWRLNADSVLWGGHKVFMVKPEEPFQPVKEATQL

Variants of: B1
Assay: raw area under fraction-flipped curve 0-4 h after induction (AUC4h, not background-subtracted), DNA-recorder readout of cleavage of the substrate (dimensionless); higher = more cleavage of the substrate by the protease variant
Conditions: temperature: 34 °C; time window: 0-4 h after rhamnose induction
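Also: Bxb1 expression induced with 0.2% (w/v) L-rhamnose at OD600 near 0.5, cultures sampled hourly, flipped fraction per protease–substrate barcode pair counted by paired-end Illumina sequencing.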

Variant | area with substrate ENLYDQS | area with substrate ENLYEQS | area with substrate ENLYHQS | area with substrate ENLYIQS | area with substrate ENLYKQS | area with substrate ENLYLQS | area with substrate ENLYMQS | area with substrate ENLYNQS | area with substrate ENLYPQS | area with substrate ENLYQQS | area with substrate ENLYVQS | area with substrate ENLYWQS | area with substrate ENLYYQS | area with substrate ENLYGQS | area with substrate ENLYSQS | area with substrate ENLYTQS | area with substrate ENLYRQS
MGESLFKGPRDRNPISSSICHLTNESDGHTTSLYGIGFGPFIITNKHLFRRNNGTLVVQSLHGVFKVKDTTTLQQHLVDGRDMIIIRMPKDFPPFPQKLKFREPQREERICLVTTNFQTKSMSSMVSDTSCTFPSGDGIFWKHWIQTKDGQCGSPLVSTRDGFIVGIHSASNFTNTNNYFTSVPKNFMELLTNQEAQQWVSGWRLNADSVLWGGHKVFMVKPEEPFQPVKEATQL [Y12R] | 0.0616 | 0.0788 | 0.0616 | 0.134 | 0.0609 | 0.0947 | 0.0691 | 0.0561 | 0.0819 | 0.0496 | 0.157 | 0.0705 | 0.0779 |  |  |  | 
MGVSLFKGPRDYNPISSSICHLTNESDGHTTSLYGIGFGPFIITNKHLFRRNNGTLVVQSLHGVFKVKDTTTLQQHLVDGRDMIIIRMPKDFPPFPQKLKFREPQREERICLVTTNFQTKSMSSMVSDTSCTFPSGDGIFWKHWIQTKDGQCGSPLVSTRDGFIVGIHSASNFTNTNNYFTSVPKNFMELLTNQEAQQWVSGWRLNADSVLWGGHKVFMVKPEEPFQPVKEATQL [E3V] | 0.0551 |  | 0.0539 | 0.145 |  | 0.109 | 0.15 |  | 0.0717 |  |  |  | 0.0758 | 0.0533 | 0.0924 | 0.0095 | 
MGESLFKGPRDYNPISSSICHLTNSSDGHTTSLYGIGFGPFIITNKHLFRRNNGTLVVQSLHGVFKVKDTTTLQQHLVDGRDMIIIRMPKDFPPFPQKLKFREPQREERICLVTTNFQTKSMSSMVSDTSCTFPSGDGIFWKHWIQTKDGQCGSPLVSTRDGFIVGIHSASNFTNTNNYFTSVPKNFMELLTNQEAQQWVSGWRLNADSVLWGGHKVFMVKPEEPFQPVKEATQL [E25S] | 0.0756 | 0.0613 | 0.0789 |  |  | 0.0864 | 0.11 | 0.0593 | 0.0825 |  | 0.128 | 0.0808 | 0.0323 | 0.0415 | 0.0789 | 0.0871 | 0.0657
MYESLFKGPRDYNPISSSICHLTNESDGHTTSLYGIGFGPFIITNKHLFRRNNGTLVVQSLHGVFKVKDTTTLQQHLVDGRDMIIIRMPKDFPPFPQKLKFREPQREERICLVTTNFQTKSMSSMVSDTSCTFPSGDGIFWKHWIQTKDGQCGSPLVSTRDGFIVGIHSASNFTNTNNYFTSVPKNFMELLTNQEAQQWVSGWRLNADSVLWGGHKVFMVKPEEPFQPVKEATQL [G2Y] | 0.0835 | 0.0784 | 0.0582 | 0.181 | 0.0668 | 0.124 | 0.0539 | 0.0697 | 0.13 | 0.0633 |  |  |  |  |  | 0.104 | 
MGESTFKGPRDYNPISSSICHLTNESDGHTTSLYGIGFGPFIITNKHLFRRNNGTLVVQSLHGVFKVKDTTTLQQHLVDGRDMIIIRMPKDFPPFPQKLKFREPQREERICLVTTNFQTKSMSSMVSDTSCTFPSGDGIFWKHWIQTKDGQCGSPLVSTRDGFIVGIHSASNFTNTNNYFTSVPKNFMELLTNQEAQQWVSGWRLNADSVLWGGHKVFMVKPEEPFQPVKEATQL [L5T] | 0.0656 |  | 0.0736 | 0.152 | 0.0231 |  | 0.107 | 0.0662 |  | 0.0546 |  | 0.0621 |  | 0.067 | 0.0868 |  | 
MGESLFKGPRDYNPGSSSICHLTNESDGHTTSLYGIGFGPFIITNKHLFRRNNGTLVVQSLHGVFKVKDTTTLQQHLVDGRDMIIIRMPKDFPPFPQKLKFREPQREERICLVTTNFQTKSMSSMVSDTSCTFPSGDGIFWKHWIQTKDGQCGSPLVSTRDGFIVGIHSASNFTNTNNYFTSVPKNFMELLTNQEAQQWVSGWRLNADSVLWGGHKVFMVKPEEPFQPVKEATQL [I15G] | 0.0224 | 0.0581 | 0.0681 |  |  | 0.052 | 0.0631 | 0.0565 | 0.0585 | 0.0559 |  | 0.0724 |  | 0.0572 | 0.0617 | 0.0565 | 0.0466
MGESLFKGPRDYNPISSSICHLTNESDGHTTSLYGIGFGPFIITNKHLFRRNNGTLVVQSLHGVQKVKDTTTLQQHLVDGRDMIIIRMPKDFPPFPQKLKFREPQREERICLVTTNFQTKSMSSMVSDTSCTFPSGDGIFWKHWIQTKDGQCGSPLVSTRDGFIVGIHSASNFTNTNNYFTSVPKNFMELLTNQEAQQWVSGWRLNADSVLWGGHKVFMVKPEEPFQPVKEATQL [F65Q] | 0.0679 |  |  |  | 0.0596 |  |  | 0.0623 | 0.101 |  |  |  |  | 0.0562 |  | 0.0739 | 
MGESLFKGPRDYNPISSSICHLTNESDGHTTSLYGIGFGPFIITNKHLFRRNNGTLVVQSLHGVPKVKDTTTLQQHLVDGRDMIIIRMPKDFPPFPQKLKFREPQREERICLVTTNFQTKSMSSMVSDTSCTFPSGDGIFWKHWIQTKDGQCGSPLVSTRDGFIVGIHSASNFTNTNNYFTSVPKNFMELLTNQEAQQWVSGWRLNADSVLWGGHKVFMVKPEEPFQPVKEATQL [F65P] | 0.0486 | 0.0547 | 0.0483 | 0.0545 | 0.0454 | 0.0426 | 0.051 |  | 0.0469 | 0.0505 |  | 0.0392 | 0.0362 |  |  | 0.0602 | 
MGESLFKGPRDYNPISSSICHLTNESDGHTTSLYGIGFGPFIITNKHLFRRNNGTLVVQSLHGVVKVKDTTTLQQHLVDGRDMIIIRMPKDFPPFPQKLKFREPQREERICLVTTNFQTKSMSSMVSDTSCTFPSGDGIFWKHWIQTKDGQCGSPLVSTRDGFIVGIHSASNFTNTNNYFTSVPKNFMELLTNQEAQQWVSGWRLNADSVLWGGHKVFMVKPEEPFQPVKEATQL [F65V] | 0.0471 |  |  |  |  |  |  | 0.0799 | 0.0735 |  |  |  |  |  |  |  | 0.0678
